The values below come from ChEMBL document CHEMBL4888484, “Replenishing the malaria drug discovery pipeline: Screening and hit evaluation of the MMV Hit Generation Library 1 (HGL1) against asexual blood stage Plasmodium falciparum ,using a nano luciferase reporter read-out” (2022).

SMILES strings stand for the structures. Hit rate of the full screen: of about 150,000 compounds, about 540 (0.36%) showed an effect of 50% or more. This is one part of the list.

In the assay the test system is Plasmodium falciparum. As to the kind of experiment: Primary screen in NF54 nanoGlo assay, in single point, at 2uM, 72h; a lower Z score goes with more inhibition. The class given is functional, Erythrocyte. The following applies: timepoint 72 hour.
On to `Cc1ccn(CCCNS(=O)(=O)c2c(Cl)ccc3nsnc23)n1`, for which the “% Inhibition” value is recorded as -10% and the Z score was 1.47.
As to `CCN(Cc1cncn1C)c1ccccc1C`, the “% Inhibition” value is reported as 7% and the Z score is on record as -1.27.
Taken in the same sequence, the figures for `COc1ccccc1CNc1nc(-c2c[nH]c3ccccc23)nc2c1CNC2` were 2% and -0.29.
Consider `NC(=O)C[C@H]1COCCN1C(=O)c1scc2c1OCCO2`, for which the “% Inhibition” value is given as -8% and the Z score came out at 1.13.
In the case of `CNC(=O)CN(CCc1ccc(C(C)(C)C)cc1)CC(=O)NC`, the “% Inhibition” value was -12% and the Z score is reported as 1.25.
With `CCNC(=O)c1nsc(C(=O)N2CCN(c3ccccn3)CC2)c1N`, the “% Inhibition” value was -10% and the Z score came to 1.26.
On to `COc1ccc(-c2nnc(NC(=O)[C@H](C)NC(=O)Nc3ccccc3F)s2)cc1`, for which the “% Inhibition” value is listed as -4% and the Z score is given as 0.45.
`Cc1cc(C)c(-c2cc(C(=O)NCCC(=O)N3CCN(C)CC3)no2)c(C)c1`: the “% Inhibition” value is -8% and the Z score was found to be 1.28.
Taken in the same sequence, the figures for `Cc1onc(NC(=O)NC[C@@H]2CCCC[C@H]2O)c1C` were -21% and 4.14.
Turning to `O=C(c1ncc(F)cc1F)N1CCC(Nc2nccs2)CC1`, the “% Inhibition” value is listed as -44% and the Z score came to 5.11.
For `O=C(NC[C@H]1CC12CC2)N1CCC=C(F)C1`, the “% Inhibition” value is -3% and the Z score is 0.65.
As to `Cc1nn(C)c(C)c1-c1ccnc2cc(C(=O)Nc3sc4c(c3C#N)CC[C@H](C(C)(C)C)C4)nn12`, the “% Inhibition” value worked out at 0% and the Z score is listed as -0.05.
The matching figures for `CN(Cc1cnc(NC[C@H]2CCCO2)nc1)Cc1cccc2cnccc12`: -7% and 0.99.
Take `Cn1c(CNC(=O)N2CCC(C)(C)[C@@H](c3ccccc3)C2)n[nH]c1=O`: the “% Inhibition” value was found to be 1% and the Z score is -0.12.
Turning to `CCOC(=O)c1nnn(-c2nc(N3CCCC3)nc(N(c3ccccc3)c3ccccc3)n2)c1C`, the “% Inhibition” value is on record as -17% and the Z score was determined as 2.24.
For `Cc1c(CN[C@H]2CC(C)(C)OC2(C)C)cnn1C`, the “% Inhibition” value was determined as 1% and the Z score was -0.08.
The matching figures for `Cn1c([C@H](Cc2ccccc2)NC(=O)c2ccccn2)nc2ccccc21`: -1% and 0.12.
`COc1ccc(-c2nc(C)nc3c2CCC3)c(OC)c1`: the “% Inhibition” value was -12% and the Z score was found to be 1.74.
Turning to `CO[C@H]1C[C@@H](O)C12CCN(C(=O)c1cc(C3CC3)n[nH]1)CC2`, the “% Inhibition” value is recorded as -1% and the Z score is listed as 0.13.
Taken in the same sequence, the figures for `CCOc1cc(-n2cnnn2)c(OCC)cc1NC(=O)c1cn(-c2ccc(OC)cc2)nn1` were -2% and 0.18.
On to `CC[C@H]1CCCCN1Cc1cccc2c1OCCO2`, for which the “% Inhibition” value was 3% and the Z score was -0.39.
For `Cn1cnc2c1CCN(C(=O)c1cn(C(C)(C)C)nn1)C21CCOCC1`, the “% Inhibition” value is given as -5% and the Z score came to 0.86.
With `Cc1ccc2[nH]c(CCNC(=O)[C@@H]3CCCN3c3nnc(N4CCCC4=O)s3)nc2c1`, the “% Inhibition” value is listed as -4% and the Z score worked out at 0.82.
Turning to `CCc1nn(C)cc1CN[C@H](C)C(=O)OC`, the “% Inhibition” value is on record as -5% and the Z score was 0.61.
With `CC(C(=O)N(C)C)S(=O)(=O)N1CC(O)C(C)(C)C1` (stereo not drawn), the “% Inhibition” value is -8% and the Z score stood at 1.15.
Turning to `C[C@H]1CCn2c(nc3cc(C(=O)NC4CCCCCCC4)ccc32)C1`, the “% Inhibition” value was -8% and the Z score stood at 1.33.
Consider `Cc1ccccc1Cn1cccc1CNS(=O)(=O)c1ccc(Cl)s1`, for which the “% Inhibition” value was -3% and the Z score is given as 0.25.
As for `CC(Cc1ccccc1F)NC(=O)[C@H]1CCCCN1` (stereo partly drawn), the “% Inhibition” value was -11% and the Z score worked out at 1.07.
The matching figures for `CN(C)C[C@@H]1COCCN(Cc2cccn2-c2ccc(Cl)cn2)C1`: -10% and 1.93.
As for `CC(=O)N[C@H]1CCN(Cc2cn(C)nc2-c2ccc3c(c2)OCCO3)C1`, the “% Inhibition” value is recorded as -1% and the Z score was 0.25.
With `CCc1nccn1CCC(=O)N1CCC[C@@]2(CNC(=O)O2)C1`, the “% Inhibition” value is reported as -15% and the Z score is given as 2.22.
On to `O=C(O)[C@H](Cc1ccccc1)n1c[n+]([O-])c(-c2ccccc2)c1-c1ccccc1`, for which the “% Inhibition” value was determined as 3% and the Z score is -0.62.
Taken in the same sequence, the figures for `COCC(C)(C)CNC(=O)c1c[nH]c2nc(C)nn2c1=O` were -37% and 3.22.
As for `Cc1cccc(/N=C(\NCc2c(C)nn(C)c2C)NC(=O)c2ccccc2Cl)c1C`, the “% Inhibition” value is listed as -4% and the Z score is 0.64.
The matching figures for `Cc1nc(-c2ncccn2)sc1C(=O)NCC1(c2ccc(F)cc2)CCOCC1`: 11% and -1.06.
`COc1cc(Cn2cccc(C(=O)N(C)[C@@H](C)C3CC3)c2=O)ccn1`: the “% Inhibition” value was -3% and the Z score amounted to 0.25.
Regarding `O=C(NCC1CCCCC1)c1ccc(NS(=O)(=O)c2ccc(Br)cc2)cc1`, the “% Inhibition” value is recorded as -2% and the Z score is 0.4.
Turning to `O=C(c1ccc(Cl)c(Cl)c1)C1CCN(C(=O)[C@H]2CCn3cncc3C2)CC1`, the “% Inhibition” value is recorded as 34% and the Z score is given as -1.08.
In the case of `CCN(CC(C)(C)O)[C@@H](C(N)=O)c1ccccc1`, the “% Inhibition” value is recorded as -6% and the Z score came to 0.62.
In the case of `C[C@](C#N)(NC(=O)Cn1cnc(C#N)n1)C1CC1`, the “% Inhibition” value was -11% and the Z score was 1.57.
Regarding `N#Cc1cccnc1N1CCC[C@H](c2[nH]ncc2-c2ccc(F)cc2)C1`, the “% Inhibition” value is recorded as -2% and the Z score was 0.43.
In the case of `COCCOCCC(=O)NC1CCN(C(C(=O)OC(C)(C)C)c2ccccc2)C1=O` (stereo not drawn), the “% Inhibition” value is recorded as -2% and the Z score is 0.21.
In the case of `COc1cnc(C(=O)N2CCOCC2)cc1O`, the “% Inhibition” value is listed as -17% and the Z score is 2.21.
Turning to `CCN1CCN(C(=O)c2ccc(CN3C(=O)COc4ccc(C(=O)COc5ccccc5)cc43)o2)CC1`, the “% Inhibition” value is listed as -4% and the Z score is 0.58.
Regarding `CCC(C)(C)NC(=O)CN1CC2CC1C2NC(=O)COc1cccc(C)c1` (stereo not drawn), the “% Inhibition” value is -2% and the Z score was 0.46.
Taken in the same sequence, the figures for `COc1ccc(-c2csc(-n3nc(-c4ccc(C)cc4)cc3N)n2)cc1` were 1% and -0.11.
On to `Cc1ccccc1O[C@H](C(=O)Nc1ccnn1C1CCN(C)CC1)C(C)C`, for which the “% Inhibition” value was -3% and the Z score is listed as 0.31.
Consider `CC(=O)NC1CCN(Cc2cc(C)nc3ccccc23)CC1`, for which the “% Inhibition” value is reported as -6% and the Z score is 0.83.
For the compound `COc1nc(CNC(=O)CCc2ccc(F)c(Cl)c2)nc(N2CCCC2)n1`, the “% Inhibition” value was -14% and the Z score turned out to be 1.77.
Take `CC(C)[C@H](NC(=O)C1CC(=O)N(c2ccccc2)C1)C(=O)NCc1cccnc1` (stereo partly drawn): the “% Inhibition” value is recorded as -9% and the Z score came to 1.18.
The matching figures for `O=C(O)c1ccc(C(=O)N(Cc2cccc(O)c2)CC2CC2)cn1`: -4% and 0.42.
Consider `O[C@H](COc1ccc(Cl)cc1CNCc1ccsc1)CN1CCCCCC1`, for which the “% Inhibition” value was -10% and the Z score came to 1.36.
The matching figures for `Cc1nc(CCNC(=O)C(F)(F)C2(O)CCC2)cs1`: -8% and 0.75.
The matching figures for `Cc1cccc(NC(=O)c2c(NC(=O)c3cccs3)sc3c2CCCC3)c1`: -8% and 1.37.
Consider `COc1ccnc(CNC(=O)c2cc(C(C)C)oc2C)c1`, for which the “% Inhibition” value is -3% and the Z score stood at 0.53.
For `CN(Cc1ccc(-c2nc3c(c(=O)[nH]2)CCCC3)cc1)Cc1cc(C2CC2)[nH]n1`, the “% Inhibition” value is recorded as -13% and the Z score amounted to 1.97.
As for `CC(C)(O)CNC(=O)C(=O)Nc1ccc(Br)cc1F`, the “% Inhibition” value was -7% and the Z score worked out at 1.23.
As for `Cc1nn(-c2ccccn2)c(C)c1[C@@H]1C=C[C@@H](NC(=O)C2CCCCC2)C1`, the “% Inhibition” value is -11% and the Z score is on record as 1.69.
In the case of `O=C(NCc1ccc(F)cc1)c1ccc2[nH]c3c(c2c1)CCCC3`, the “% Inhibition” value is -11% and the Z score stood at 1.29.
As for `NC(=O)Cc1nc(C2(Cn3ccnc3)CC2)n(CC(F)(F)F)n1`, the “% Inhibition” value is recorded as -16% and the Z score was 1.59.
Taken in the same sequence, the figures for `Cc1ccc(C)c(CC(=O)N2C[C@@H]3CC[C@H]2CN(S(C)(=O)=O)C3)c1` were -7% and 0.75.
In the case of `CC(C)CCn1c(=O)n(Cc2cccnc2)c2cc(C(=O)O)ccc21`, the “% Inhibition” value was -12% and the Z score was 1.86.
As for `Cc1ccccc1OC1(C(=O)O)CCN(Cc2cc(-c3ccccc3)no2)CC1`, the “% Inhibition” value is reported as -2% and the Z score came out at 0.3.
Regarding `COc1nc(NCCn2cnc(C)c2C)ncc1F`, the “% Inhibition” value stood at 5% and the Z score is -0.59.
`CCOCC(=O)NCCN1CCC(c2cccs2)CC1`: the “% Inhibition” value was -12% and the Z score stood at 1.75.
The matching figures for `C/C(=C\c1ccccc1)C(=O)N1CCN(Cc2cnoc2C)CC1`: -8% and 1.42.
Regarding `FC(F)Oc1ccccc1CN1CCO[C@H]2CCCC[C@@H]21`, the “% Inhibition” value is recorded as -2% and the Z score was determined as 0.37.
Taken in the same sequence, the figures for `Cc1sc2ccccc2c1CN1CCC[C@H](CCC(N)=O)C1` were -3% and 0.64.
In the case of `CC(C)CC[C@H](C)NC(=O)Nc1ccncc1`, the “% Inhibition” value is given as 35% and the Z score was -3.49.
For `Cc1nc(CN(C)c2ncccc2C(=O)N2CCc3ccccc32)cs1`, the “% Inhibition” value is listed as -5% and the Z score was 0.93.
Taken in the same sequence, the figures for `Cc1nc[nH]c1-c1nccn1CC(F)(F)F` were -16% and 2.08.
The matching figures for `CN1CCc2cc3c(c(OCC(=O)NCc4ccccn4)c2C1=O)OCO3`: -6% and 0.83.
With `C[C@@H](C(=O)Nc1ncccn1)N(C)CCc1ccc(Cl)cc1`, the “% Inhibition” value turned out to be 3% and the Z score is given as -0.54.
Take `COc1ccc(CC(=O)N2CCN(c3ccc(-c4ccc(C)cc4C)nn3)CC2)cc1OC`: the “% Inhibition” value is on record as 1% and the Z score was -0.13.
With `Cc1ccc(F)c(OCC(=O)N2CC3(CCOC3)C2)c1`, the “% Inhibition” value is given as -8% and the Z score is recorded as 1.49.
With `NC(=O)[C@@H]1C[C@@H](O)CN1C1CCN(Cc2cccc(Cl)c2)CC1`, the “% Inhibition” value is given as -8% and the Z score is 1.3.
Taken in the same sequence, the figures for `C=CC[C@@H]1N(C(=O)Nc2ccnnc2C)CCCC1(C)C` were -6% and 0.64.
As to `CC(C)(C)OC(=O)N1CC(c2ccccc2)CC1C(=O)O` (stereo not drawn), the “% Inhibition” value amounted to 11% and the Z score was -1.69.
As for `CCC[C@H](NC(=O)Nc1ccc(Cl)c(C)c1)c1nccn1C`, the “% Inhibition” value is listed as -6% and the Z score is recorded as 0.94.
In the case of `CC(C)NC1CCN(CC(=O)N[C@H](c2ccc(F)cc2)C2CCCC2)CC1`, the “% Inhibition” value is 1% and the Z score was -0.14.
`COc1ccc(CC2=NOC(C(=O)N3CCCCC3c3nccn3C)C2)cc1` (stereo not drawn): the “% Inhibition” value was -7% and the Z score is listed as 1.31.
Taken in the same sequence, the figures for `CCN(C)S(=O)(=O)Nc1cc(C(=O)O)ccc1OC(F)(F)F` were -7% and 0.85.
In the case of `O=C(c1cncc(N2C[C@@H]3c4ccccc4OC[C@]3(CO)C2)n1)N1CCCC1`, the “% Inhibition” value is given as -22% and the Z score was determined as 1.92.
Turning to `Cc1ccn2c(NCc3cccnc3)nnc2c1`, the “% Inhibition” value is recorded as -2% and the Z score amounted to 0.45.

For orientation: % Inhibition means the relative decrease from the control value, in per cent.
